# Measured values from the supplement of paper PMC3334620.
# In all, about 33,000 sequences were measured (“E-score (-0.5 to 0.5)”: median about -0.054, highest 2% from about 0.39 on). The list shows a part of the results.
# Target: Ylr278c (UniProt Q05854)
# Assay: PBM E-score (8-mer binding enrichment) (E-score (-0.5 to 0.5)); higher = stronger / more preferred TF binding; most listed sequences are background and not binding sites
# Settings: protein concentration: 200 nM; construct: GST-DNA-binding domain
# In short: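 Each ungapped eight-base word and its reverse complement, pooled, received an E-score from the Universal PBM Analysis Suite. Underlying scans, normalised with masliner, recorded fluorescent anti-GST bound to GST-tagged yeast transcription factors. These were applied at about 100-200 nM to universal all-10-mer Agilent arrays double-stranded by primer extension.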
row,Sequence,PBM E-score
1,AAAGCCGT,0.137
2,CTGAATGA,-0.0114
3,GCACGGGC,0.059
4,ATCTTTTA,-0.123
5,ACGCGTCT,-0.172
6,GACGTCAA,-0.156
7,GCAAGTGC,-0.274
8,AACCCTAA,-0.0663
9,ATAGAAGG,-0.0667
10,AGCCCCTG,-0.268
11,AGTGCCCG,0.157
12,CTGCGCTC,-0.0763
13,AACGTAAA,0.0365
14,ATGATGTG,0.052
15,ATAGGTCC,0.0558
16,AGATTTTC,-0.0429
17,CGTCAGAC,-0.103
18,AACGGCGC,0.0827
19,CGTCCGAA,0.352
20,GTCTTTTA,-0.0667
21,CACGGCAG,-0.013
22,CACGAGAA,-0.147
23,GACCTAGC,-0.0181
24,GCGGTTAA,0.0177
25,CTCGTGAA,-0.148

row,Sequence,PBM E-score
1,CCATCGGA,0.415
2,GCTTTTAC,0.00897
3,GTGAACGA,-0.132
4,AGAGGCCG,-0.0387
5,ATATAAAA,-0.00951
6,CCGGCACA,0.281
7,ACGGTTTA,-0.121
8,ACTTATCT,-0.101
9,ATTGATGC,-0.0883
10,GCATAACA,-0.206
11,CGATCGAG,0.185
12,CTGAATCA,-0.19
13,GCATGGAC,-0.0056
14,CAGACCGG,0.29
15,CGAGACAC,-0.184
16,GTTGTTTA,-0.164
17,AGGCCAAC,-0.0929
18,ACTCTAGA,-0.205
19,ATCTTGGA,-0.214
20,GCGGCCGC,0.284
21,ACGAAGTC,-0.151
22,ACACTCAT,-0.126
23,CCCTAATC,0.0251
24,CATGCCCA,-0.286
25,ACGAAAGG,-0.0104

row,Sequence,PBM E-score
1,ATAAACGA,0.0214
2,CAACGACG,-0.167
3,AGCGTGTG,0.0373
4,AATTTACG,0.204
5,ACCAGTCG,-0.0273
6,AAGTCGGC,0.11
7,CAGAGAAA,-0.183
8,ATCGTGTC,0.129
9,GGTACGAA,-0.142
10,AGGCGAAT,-0.143
11,GCTCACAC,-0.242
12,GAGATGCA,-0.185
13,ATGCTGGG,0.0018
14,CAATCCCA,0.0152
15,ATACATGG,-0.0741
16,CGCTTGAA,0.111
17,ACGTGAGG,-0.0487
18,ATTAATGA,0.066
19,ATCAGAGG,-0.29
20,AAACAATC,-0.0526
21,AGGGGCGC,0.0408
22,AAGGAGCC,-0.00021
23,AAACTTTC,-0.0361
24,ACAGGCGT,-0.205
25,ATCTTTAA,-0.0603

row,Sequence,PBM E-score
1,ACTTATAT,-0.0207
2,AGGAGGAG,-0.212
3,CTTTGATA,-0.119
4,CGGTGTTC,0.324
5,CCATGCTC,-0.208
6,CTCTGTGC,-0.103
7,CAAAAGAA,0.0117
8,CAAGATTA,-0.145
9,CTTGTCTC,0.0729
10,AAAGCCCC,0.112
11,CAAAGCAG,-0.19
12,CACCTAAC,-0.0149
13,CTGGTTTA,-0.235
14,TCTCGACA,-0.00534
15,AGTACACA,-0.00548
16,GCTTTCGA,-0.111
17,CAACTGTA,-0.221
18,CCACTTCG,0.103
19,ATTGTTTC,0.153
20,ATGTCAGG,-0.0405
21,CCCGAGGA,0.061
22,CGACGCAG,0.0351
23,TCCCGTAA,0.103
24,AGAGAAAG,-0.214
25,AACAGCTG,-0.276

row,Sequence,PBM E-score
1,AACTGCAC,-0.0764
2,GCTGAAGA,-0.104
3,CAGCTACC,-0.2
4,CAATCCGG,0.393
5,ATTGCTCA,-0.162
6,ATTTGCTC,0.0683
7,AGATTGTG,-0.0989
8,AAGACAAA,-0.0701
9,CAGCGGAC,0.257
10,TAAAGGTA,-0.184
11,CTTTGATC,0.0241
12,CACTAAAG,-0.169
13,ATACCTCA,-0.182
14,ATTACAAC,-0.00851
15,CTGGATTC,-0.00018
16,ACTTCCTC,-0.0484
17,CAGCCCTG,-0.227
18,AGCTGCCA,-0.142
19,CAAACTAC,-0.147
20,GCTCCCAC,-0.101
21,CGTTCCGC,0.342
22,CGCAACAG,0.086
23,CCCACTTA,0.0183
24,CCAGATCG,-0.0308
25,ATTTTCAA,0.0536

row,Sequence,PBM E-score
1,ACATAGAA,-0.03
2,CTTAAATC,0.0232
3,TCAAGTAA,-0.204
4,GCGTTCAA,-0.169
5,ATAAGCCG,0.225
6,CTCGTTCA,-0.126
7,CCAGTTAC,-0.189
8,ATCCCAGG,0.0937
9,CCTAAAAA,-0.0677
10,TGGCAAAA,-0.053
11,ACAATTAT,0.0831
12,ATTTGTGG,-0.0517
13,ACCAGACT,-0.261
14,ACGAAGTG,-0.182
15,ACAGCCTA,-0.137
16,ATCAACTG,-0.0057
17,AAGAGGTC,-0.0926
18,GCCGTTAA,0.0207
19,ACATAGCG,0.0164
20,CTTTGCAC,-0.203
21,CAGGAGAC,-0.0772
22,GCATCCTA,-0.0856
23,GAAGAGCC,0.149
24,AGTCCGTA,0.328
25,CCCCTATC,-0.14

row,Sequence,PBM E-score
1,ACCGCACG,-0.155
2,ACTCGCAC,-0.0401
3,ATATAGTG,-0.0658
4,CCCGTCGG,0.372
5,GTTCACTA,-0.194
6,CAATTGCG,0.0389
7,AATGTTCC,0.0437
8,AGGTCATC,0.00667
9,GCCCCAAC,0.0493
10,ACCCTGAC,-0.182
11,ATTCGTCA,-0.189
12,GGATCTGA,0.00665
13,AGTATCTA,-0.166
14,CCTTAGGC,-0.27
15,AGTGTGCG,0.0226
16,ATGGTGTC,-0.134
17,ACGATTCC,0.0208
18,CAATGGGA,0.125
19,ATGGTATC,0.00012
20,GTTATTGA,-0.148
21,CGCCTAGA,-0.0191
22,CATAGGCA,-0.244
